Data on 63 sequences can be found in the BET-seq Pho4 binding data (Le et al. 2018).

The other results are listed elsewhere or left out. These are noisy estimates, calculated here from bound and input reads.

The target in the experiment is T1, Pho4 (S. cerevisiae) (UniProt P07270).
T1 sequence: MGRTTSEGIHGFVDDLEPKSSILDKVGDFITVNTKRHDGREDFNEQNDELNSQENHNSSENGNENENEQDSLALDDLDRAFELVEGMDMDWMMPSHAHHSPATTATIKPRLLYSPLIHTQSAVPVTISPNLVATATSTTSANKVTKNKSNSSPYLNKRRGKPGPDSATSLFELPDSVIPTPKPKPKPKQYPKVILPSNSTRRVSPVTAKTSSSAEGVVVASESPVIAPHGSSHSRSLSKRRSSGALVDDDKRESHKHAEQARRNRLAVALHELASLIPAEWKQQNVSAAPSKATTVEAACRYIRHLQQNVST
The experiment is described as follows: relative binding free energy (BET-seq); higher = weaker binding. To be noted: reference: library average.
On to AAGAGCACGTGTCGGG, for which the “relative binding free energy” value was -0.05 kcal/mol.
As for AGATACACGTGGGAGA, the figure is 0.01 kcal/mol; as for GTGTTCACGTGTGTAT, 0.27 kcal/mol; as for TGTGACACGTGTCTGA, 0 kcal/mol.
For ATTTGCACGTGATGGC the value was 0.21 kcal/mol.
For TGAAACACGTGGGGAG the value was -0.03 kcal/mol; for GCGTACACGTGAGGGG, 0.24 kcal/mol; for GTGTACACGTGGTAGC, -0.06 kcal/mol.
With AATGGCACGTGGAGCG, the “relative binding free energy” value came out at 0.05 kcal/mol.
As for TTATTCACGTGTGTGG, the “relative binding free energy” value turned out to be 0.3 kcal/mol.
As for GGAGTCACGTGTGTTG, the figure is 0.29 kcal/mol; as for TAGTCCACGTGATTTT, 0.1 kcal/mol; as for TCGGTCACGTGTTTTC, 0.24 kcal/mol.
As for GCTTACACGTGTGTTT, the “relative binding free energy” value turned out to be 0.2 kcal/mol.
For GTGCTCACGTGAGTGG the value was 0.35 kcal/mol; for TATGTCACGTGCAAGT, 0.16 kcal/mol.
In the case of GTAGCCACGTGGTGAG, the “relative binding free energy” value was -0.03 kcal/mol.
For CTTGGCACGTGAAATT the value was 0.2 kcal/mol.
Take TAAATCACGTGGTCGG: the “relative binding free energy” value was -0.07 kcal/mol.
For TTATACACGTGATTGT the value was 0.11 kcal/mol; for ACCGACACGTGTGGGG, 0.09 kcal/mol.
With TTAGCCACGTGGCGGG, the “relative binding free energy” value is -0.2 kcal/mol.
For AGGGTCACGTGATAGC the value was 0.27 kcal/mol.
TCGATCACGTGTGATA: the “relative binding free energy” value was 0.3 kcal/mol.
As for GGGAGCACGTGGACAG, the “relative binding free energy” value was -0.12 kcal/mol.
For AACGACACGTGTTGTG the value was 0.05 kcal/mol; for AGTTTCACGTGGCGCA, 0.27 kcal/mol; for GCGTGCACGTGACGGG, 0.09 kcal/mol.
For TTACGCACGTGGTTTA, the “relative binding free energy” value is -0.19 kcal/mol.
For GCTGGCACGTGTAGTT the value was 0.04 kcal/mol; for GTCTTCACGTGGTATG, 0.11 kcal/mol.
As for GTAATCACGTGGCAGG, the figure is 0.23 kcal/mol; as for TGTGTCACGTGATACT, 0.12 kcal/mol; as for TGAGCCACGTGTAGGT, -0.08 kcal/mol.
For TAGTGCACGTGAATCA the value was 0.48 kcal/mol; for AAATACACGTGGCGTT, 0.1 kcal/mol.
Take TTAATCACGTGAGCGG: the “relative binding free energy” value worked out at 0.35 kcal/mol.
As for GGTATCACGTGGGTGG, the “relative binding free energy” value was 0.03 kcal/mol.
As for GGAATCACGTGGGCTG, the figure is -0.12 kcal/mol; as for CGGGGCACGTGAGCTG, -0.05 kcal/mol; as for TGTTGCACGTGAACAG, 0.15 kcal/mol.
As for AGGGGCACGTGAGCTT, the figure is 0.02 kcal/mol; as for GTTAACACGTGGGTTC, -0.08 kcal/mol; as for TGGTACACGTGTACTT, 0.16 kcal/mol.
As for TTTAGCACGTGTCGTG, the figure is -0.15 kcal/mol.
Turning to GTATTCACGTGCTTGA, the “relative binding free energy” value is 0.29 kcal/mol.
For GGAAACACGTGGTGTA, the “relative binding free energy” value was -0.09 kcal/mol.
For GGAAGCACGTGGAAGG the value was -0.03 kcal/mol; for TATTACACGTGGTGGC, 0.11 kcal/mol.
As to TTCTACACGTGCTTGT, the “relative binding free energy” value amounted to 0.07 kcal/mol.
For CGGTGCACGTGCGGTA the value was -0.04 kcal/mol; for GTGGGCACGTGGGTGC, -0.2 kcal/mol; for CGTTACACGTGTAGTT, 0.15 kcal/mol.
Regarding TAGAGCACGTGGGTGC, the “relative binding free energy” value was -0.27 kcal/mol.
As for TTTTCCACGTGGTTAT, the figure is -0.02 kcal/mol; as for CTTGGCACGTGTGCTT, -0.14 kcal/mol.
As for CGTAGCACGTGTGGCG, the figure is 0 kcal/mol; as for GTGAGCACGTGGGGGG, -0.16 kcal/mol.
As for TCGGACACGTGTGGGA, the figure is 0.03 kcal/mol.
As to TGGTTCACGTGCAGTG, the “relative binding free energy” value worked out at 0.31 kcal/mol.
As for TTTATCACGTGGCTGC, the figure is 0.22 kcal/mol.
For AATAACACGTGGTAGG the value was -0.03 kcal/mol; for AGGCGCACGTGTGTAG, -0.1 kcal/mol.
